From patent publication US7687508B2, “Cyclic derivatives as modulators of chemokine receptor activity” (Bristol-Myers Squibb Company, priority 2006, dated 2010)
Read-outs that look alike come from different tables or passages of the source.

Tested on: Sodium Channel, Site 2

Row | Structure (SMILES) | Na+ channel binding (% inhibition) (10,000 nM) | Na+ channel binding (% inhibition) (30,000 nM)
1 | CC(=O)N[C@@H]1C[C@H](N(C)C(C)C)CC[C@@H]1N1CC[C@H](Nc2ncnc3cnc(C(C)(C)C)nc23)C1=O [Example 1, N-((1R,2S,5R)-2-((3S)-3-((6-tert-butylpyrimido[5,4-d]pyrimidin-4-yl)amino)-2-oxo-1-pyrrolidinyl)-5-(isopropyl(methyl)amino)cyclohexyl)acetamide] | 13%, 10,000 nM | 6%, 30,000 nM
2 | CN[C@@H]1CC[C@H](N2CC[C@H](Nc3ncnc4ccc(C(F)(F)F)cc34)C2=O)[C@H](NC(C)=O)C1 [Example 3, N-((1R,2S,5R)-5-(methylamino)-2-((3S)-2-oxo-3-((6-(trifluoromethyl)-4-quinazolinyl)amino)-1-pyrrolidinyl)cyclohexyl)acetamide] | 17%, 10,000 nM | 42%, 30,000 nM
3 | CC(C)N(C)[C@@H]1CC[C@H](N2CC[C@H](Nc3ncnc4ccc(C(F)(F)F)cc34)C2=O)[C@H](NC=O)C1 [Example 7, N-((1R,2S,5R)-5-(isopropyl(methyl)amino)-2-((S)-2-oxo-3-(6-(trifluoromethyl)quinazolin-4-ylamino)pyrrolidin-1-yl)cyclohexyl)formamide] | 22%, 10,000 nM | 44%, 30,000 nM
4 | CC(=O)N[C@@H]1C[C@H](N(C)C)CC[C@@H]1N1CC[C@H](Nc2ncnc3ccc(C(F)(F)F)cc23)C1=O [Example 8, N-((1R,2S,5R)-5-(dimethylamino)-2-((3S)-2-oxo-3-((6-(trifluoromethyl)-4-quinazolinyl)amino)-1-pyrrolidinyl)cyclohexyl)acetamide] | −14%, 10,000 nM | 19%, 30,000 nM
5 | CC(=O)N[C@@H]1C[C@H](N(C)C(C)C)CC[C@@H]1N1CC[C@H](NC(=O)c2cccc(C(C)(C)C)n2)C1=O [Example 9, N-((3S)-1-((1S,2R,4R)-2-acetamido-4-(isopropyl(methyl)amino)cyclohexyl)-2-oxo-3-pyrrolidinyl)-6-tert-butyl-2-pyridinecarboxamide] | 13%, 10,000 nM | 48%, 30,000 nM
6 | CCC(=O)N[C@@H]1C[C@H](N)CC[C@@H]1N1CC[C@H](Nc2ncnc3ccc(C(F)(F)F)cc23)C1=O [Example 10, N-((1R,2S,5R)-5-amino-2-((3S)-2-oxo-3-((6-(trifluoromethyl)-4-quinazolinyl)amino)-1-pyrrolidinyl)cyclohexyl)propanamide] | 18%, 10,000 nM | 45%, 30,000 nM
7 | CC(C)(C)N[C@@H]1CC[C@H](N2CC[C@H](NC(=O)c3ccnc(C(C)(C)C)n3)C2=O)[C@H](NS(C)(=O)=O)C1 [Example 11, 2-tert-butyl-N—((S)-1-((1S,2R,4R)-4-(tert-butylamino)-2-(methylsulfonamido)cyclohexyl)-2-oxopyrrolidin-3-yl)pyrimidine-4-carboxamide] | 14%, 10,000 nM | 34%, 30,000 nM
8 | CCC(=O)N[C@@H]1C[C@H](NC(C)(C)C)CC[C@@H]1N1CC[C@H](NC(=O)c2ccnc(C(C)(C)C)n2)C1=O [Example 12, 2-tert-butyl-N-((3S)-1-((1S,2R,4R)-4-(tert-butylamino)-2-(propionylamino)cyclohexyl)-2-oxo-3-pyrrolidinyl)-4-pyrimidinecarboxamide] | 18%, 10,000 nM | 36%, 30,000 nM
9 | CC(C)(C)N[C@@H]1CC[C@H](N2CC[C@H](Nc3ncnc4cnc(C(C)(C)C)nc34)C2=O)[C@H](NS(C)(=O)=O)C1 [Example 13, N-((1R,2S,5R)-5-(tert-butylamino)-2-((3S)-3-((6-tert-butylpyrimido[5,4-d]pyrimidin-4-yl)amino)-2-oxo-1-pyrrolidinyl)cyclohexyl)methanesulfonamide] | 5%, 10,000 nM | 21%, 30,000 nM
10 | CO[C@@H]1CC[C@H](N2CC[C@H](Nc3ncnc4ccc(C(F)(F)F)cc34)C2=O)[C@H](CNC(C)=O)C1 [Example 15, N-(((1S,2S,5R)-5-methoxy-2-((3S)-2-oxo-3-((6-(trifluoromethyl)-4-quinazolinyl)amino)-1-pyrrolidinyl)cyclohexyl)methyl)acetamide] | −5%, 10,000 nM | 5%, 30,000 nM
